PMC6919601, “Identification of Plasmodium dipeptidyl aminopeptidase allosteric inhibitors by high throughput screening” (PLoS ONE, 2019)
In all, about 110,000 compounds went through this assay and about 230 (0.21%) showed an effect of 50% or more. The list shows a part of the results.

Each compound was assayed against DPAP1 (Plasmodium falciparum, UniProt Q8IIJ9) (assay: primary screen, percent inhibition; read by cleavage of a fluorogenic dipeptide substrate; higher = more effect of the substance).
Sequence of DPAP1 (Q8IIJ9 whole entry, looked up): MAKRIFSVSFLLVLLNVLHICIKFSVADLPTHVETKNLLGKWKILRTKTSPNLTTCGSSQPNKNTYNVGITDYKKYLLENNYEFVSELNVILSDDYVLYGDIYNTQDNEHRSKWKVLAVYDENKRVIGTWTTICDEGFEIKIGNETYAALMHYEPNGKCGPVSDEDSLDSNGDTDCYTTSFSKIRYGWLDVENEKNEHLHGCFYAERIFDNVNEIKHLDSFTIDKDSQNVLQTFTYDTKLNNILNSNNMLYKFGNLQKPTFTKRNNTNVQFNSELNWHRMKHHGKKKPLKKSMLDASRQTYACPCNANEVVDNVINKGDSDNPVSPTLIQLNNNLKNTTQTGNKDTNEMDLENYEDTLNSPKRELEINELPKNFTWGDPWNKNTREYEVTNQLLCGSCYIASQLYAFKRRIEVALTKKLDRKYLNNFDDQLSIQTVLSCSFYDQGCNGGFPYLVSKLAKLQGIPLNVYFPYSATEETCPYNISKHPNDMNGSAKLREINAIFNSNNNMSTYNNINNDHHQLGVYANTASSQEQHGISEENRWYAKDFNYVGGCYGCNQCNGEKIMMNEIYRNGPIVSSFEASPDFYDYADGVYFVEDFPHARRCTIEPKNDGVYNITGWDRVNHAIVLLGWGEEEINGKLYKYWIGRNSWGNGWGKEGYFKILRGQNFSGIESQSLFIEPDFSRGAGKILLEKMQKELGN
Parameters: species or system P. falciparum D10 trophozoite lysates; single well
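Also: 30 min substrate incubation versus DMSO and 10 µM JCP410 controls.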

Row | SMILES | % Inhibition @ 10 uM
1 | Cc1ccc(SCc2cc(O)nc(/N=C(\N)Nc3ccccc3)n2)cc1 | -3.14%
2 | COc1cccc(N2C(=O)C3C4C=CC(C4)C3C2=O)c1 (stereo not shown) | -8.19%
3 | COc1ccc(C2CC(=O)Nc3[nH]nc(-c4ccc(Cl)cc4)c32)c(OC)c1 (stereo not shown) | 3.39%
4 | Cc1cc(N[C@H]2CCCCNC2=O)nc2ccccc12 | -1.32%
5 | COc1ccc2oc(=O)cc(CN3CCN(Cc4ccc(OC)c(OC)c4OC)CC3)c2c1 | 0.00706%
6 | CC1CCCC(NC2CN3CCC2CC3)C1C (stereo not shown) | -5.11%
7 | O=S(=O)(NCc1ccccn1)c1ccc(-c2cc(C(F)(F)F)no2)s1 | -5.31%
8 | Cc1nc2c(c(C)nn2-c2ccccc2)c(C)c1CCC(=O)NCc1cccnc1 | 5.65%
9 | N#Cc1cc2c(=O)n3ccccc3nc2n(-c2nccs2)c1=O | 1.12%
10 | Cc1ccc(-c2noc(CN(C(=O)c3ccc(C)c(Cl)c3)C(C)C)n2)cc1 | -2.14%
11 | COc1ccc(OC)c2c1CCC1NCCOC21 (stereo not shown) | 0.795%
12 | c1ccc(-c2nnc(COc3ccc4ccccc4c3)o2)cc1 | -6.72%
13 | COC(=O)C(c1ccccc1)N1CCCCCC1 (stereo not shown) | -7.5%
14 | CCCn1c(=O)c(C(=O)Nc2nc(-c3ccc(Cl)cc3)cs2)c(O)c2ccccc21 | 4.33%
15 | Cc1sc2nc(-c3ccco3)oc(=O)c2c1C | 1.8%
16 | COc1ccc(S(=O)(=O)NC(C)C)cc1OC | 0.345%
17 | COc1ccc2cc3cc(C(=O)NCCCN4CCC(C)CC4)oc3nc2c1 | -3.35%
18 | CN(Cc1ccc(F)c(Br)c1)CC(O)c1ccccc1 (stereo not shown) | -5.26%
19 | Cc1ccc(CN2CCC(CNC(=O)CC(C)n3nc(C)cc3C)CC2)cc1 (stereo not shown) | -6.11%
20 | CCCCN1C(=O)C2Cc3c([nH]c4ccccc34)C(c3cccnc3)N2C1=O (stereo not shown) | -0.0372%
21 | Cc1ccc(C2=NS(=O)(=O)N(C)C(C(=O)Nc3cnn(CC(=O)N4CCOCC4)c3)=C2)cc1 | -1.06%
22 | COC(=O)/C(=C1\Oc2c(c(=O)oc3ccccc23)S1)C(F)(F)F | 18.5%
23 | O=S(=O)(c1ccc(Cl)nc1)N1CCCc2ccccc21 | -1.88%

Row | SMILES | % Inhibition @ 10 uM
24 | Cc1ccc(C)c(OCC(=O)Nc2ccccc2)c1 | 1.08%
25 | COc1ccc(CCNC(=O)c2ccc(-n3cnc4cccnc43)cc2)cc1OC | 6.16%
26 | CC1CC(S)=Nc2ccccc2N1C(=O)Nc1ccccc1 (stereo not shown) | 0.583%
27 | Nc1nnnn1/N=C/c1ccc(-c2cccc(Cl)c2Cl)o1 | 1.13%
28 | CCOC(=O)N1CCN(C(=O)CN(c2cccc(C(F)(F)F)c2)S(=O)(=O)c2ccccc2)CC1 | 2.55%
29 | CCN1C(=O)S/C(=C\c2cccc(OC)c2OC(C)C)C1=O | -3.41%
30 | O=C(COCc1cc(-c2ccc(F)cc2)on1)NCc1cccs1 | -3.1%
31 | COC(=O)c1ccc(S(=O)(=O)c2ccccc2)cc1 | -0.178%
32 | c1ccc(N2CCN(Cc3cccs3)CC2)nc1 | -2.56%
33 | CCN(CC)c1nc2c(c(=O)n(C)c(=O)n2C)n1CC(=O)c1ccccc1 | -4.89%
34 | COc1ccccc1Nc1ccccc1C(=O)N1CCOCC1 | 1.67%
35 | CCOc1ccc(S(=O)(=O)/N=C(\NC)c2ccccc2)cc1 | 1.31%
36 | Cc1cc(-c2ccccc2)c2c(C)c(C)sc2n1 | 1.4%
37 | c1ccc2c(c1)c(NCC1CCCO1)nn1nnnc21 (stereo not shown) | -1.34%
38 | CCCC1=C(C(=O)OCC)C(c2ccccc2OC)NC(=O)N1 (stereo not shown) | 8.98%
39 | COc1ccc(NC(=O)c2ccccc2Cl)cc1OC | -1.5%
40 | Cc1ccc(S(=O)(=O)N2CCCC(C(=O)N3CCC4(CC3)OCCO4)C2)cc1 (stereo not shown) | -1.34%
41 | c1ccc(CCc2nc(-c3ccc(-n4cccc4)cc3)no2)cc1 | -36.9%
42 | Cc1cc(N2CCCC2)n2nc(C)c(-c3ccccc3)c2n1 | 3.19%
43 | CCN1CCC(NCCc2ccc(F)cc2)CC1 | -5.94%
44 | Cc1cccc(S(=O)(=O)Nc2ccc(Cl)c(C(F)(F)F)c2)c1 | -1.16%
45 | CCOC(=O)C1CC(=O)OC12CCOC(C)(C)C2 (stereo not shown) | 5.66%
46 | CC(C)C(C(=O)NC1CCCCCC1)N1Cc2ccccc2C1=O (stereo not shown) | 4.6%

Row | SMILES | % Inhibition @ 10 uM
47 | O=C(NCc1ccc2c(c1)OCO2)c1cc2c(s1)-c1ccccc1S(=O)(=O)C2 | 4.4%
48 | CCN(CC)c1c(S(=O)(=O)c2ccc(C)cc2)cnc2ccccc12 | -7.48%
49 | Cc1ccc(N(Cc2ccc(F)cc2)C(=O)COc2ccc3ccccc3c2)cc1 | -1.8%
50 | Cc1nc2c(c(C)nn2C)c(C)c1CCC(=O)NCC(C)c1ccccc1 (stereo not shown) | -2.45%
51 | C#CCOc1ccc(C2C3=C(CCCC3=O)N(CCC(=O)O)C3=C2C(=O)CCC3)cc1Cl | -2.22%
52 | CCCN1CCC(N2CCCCC2)CC1 | -0.303%
53 | Cc1cc(C)nc(N2N=C(c3ccccc3)CC2=O)n1 | -3.33%
54 | CNc1oc(/C=C/c2ccc(F)cc2)nc1C#N | -2.57%
55 | CN1CCN(C(=O)Nc2cccc3ccccc23)CC1 | 6.06%
56 | Cc1sc(NC(=O)Nc2ccccc2)c(C(N)=O)c1C | 1.84%
57 | CCOC(=O)c1cc2c(s1)-c1c(C)cccc1OC2 | 0.231%
58 | Cc1nc(C)c(NC(=O)NC(C)(C)C)cc1NC(=O)NC(C)(C)C | 5.7%
59 | Cc1oc2ncnc(N3CCOCC3)c2c1C(=O)N(CCC(C)C)Cc1ccco1 | 13.4%
60 | CCC1OCC2(COC(C)=O)C(C)C=C(C)C1C2C (stereo not shown) | 2%
61 | CCCCc1nnc2sc(NC(=O)c3cccs3)nn12 | 0.00665%
62 | CC1=C(c2ccc(Cl)cc2)S(=O)(=O)N=C1N1CCC(C(=O)NC2CCCC2)CC1 | 3.16%
63 | N#Cc1cn(CCCOc2ccccc2)c2ccccc12 | -4.49%
64 | CCCCn1c(Oc2ccccc2Cl)nc2c1c(=O)n(C)c(=O)n2C | 6.89%
65 | Cc1cccc(OCC(=O)Nc2ccc3ccccc3c2)c1 | 0.467%
66 | COc1ccc(CCNC(=O)CSc2nc(C)cc(C)n2)cc1OC | 1.59%
67 | CCC(C(=O)NCc1ccncc1)c1ccccc1 (stereo not shown) | 5%
